Results from patent US20240376185A1.

B1: SVG03L (VHH, not shown: small tags and cut ends)
VHH: QVQLQESGGGLVQAGGSLRLSCAASGRTFSNYVMGWFRQAPGKEREFVSAISWNGVSTFYADSVKGRFTISRDNAKNTVYLQMNSLKPEDTAVYYCAADERFVVRYNYWGQGTQVTVSS
B2: SVG19L (VHH, not shown: small tags and cut ends)
VHH: QVQLQQSGGGLVQPGGSLRLSCAASGFTFSSYAMSWVRQAPGKGLEWVSAINSGGGSTSYADSVKGRFTISRDNAKNTLYLQMNSLKPEDTAVYYCAKDFDPWGVGTGGYDYWGQGTQVTVSS
B3: SVG23L (VHH, not shown: small tags and cut ends)
VHH: QVQLQESGGGLVQAGGSLRLSCAASGRAFGSYTMNWFRQAPGKERDFVAGIMSSGMNTWYADSVKGRFTISRDNAKNTVYLQMNSLKPEDTAVYYCASRPRSTMTSGRYLYDYWGQGTQVTVSS
B4: SVG24L (VHH, not shown: small tags and cut ends)
VHH: QVQLQQSGGGLVQAGGSLRLSCAASGRTFSTYNIAWFRQAPGKEREFVTAITWGSGNTYYADSVKGRFTISRDNAKNTVFLQMNSLKPDDTAVYYCAARRSLGPTMAFAYEYWGQGTQVTVSS
B5: SVG18L (VHH, not shown: small tags and cut ends)
VHH: QVQLQQSGGGLVQPGGSLRLSCAASGFTFSSYAMSWVRQAPGKGLEWVSAINSGGDIISYADSVKGRFTISRDNAKNTLYLQMNSLKPEDTAVYYCAKSPIVRTYGGYDYWGQGTQVTVSS
B6: SVG07L (VHH, not shown: small tags and cut ends)
VHH: QVQLQESGPGLVKPSQTLSLTCTVSGGSITTTAYAWSWIRQPPGKGLEWMGAIRFDGTTDYSPSLKSRISISRDTSNNQFSLRMSSVTPEDTAVYYCARYGVVSDHGGLDYWGQGTQVTVSS
B7: SVA04L (VHH, not shown: small tags and cut ends)
VHH: QVQLQQSGGGLVQAGGSLRLACAASGRTLSSYVMGWFRQAPGKEREFVAAISWSGGSTYYADSVKGRFTISRDNAKNTVYLQMNSLKPEDTAVYYCAATLRGSNRYYSGRVYDYWGQGTQVTVSS

What follows are binders tested against chicken gamma globulin (chicken) (assay: ELISA on coated antigen; 0.2 subtracted).

Binder	maximal absorbance value at 450 nm (background subtracted) [A450]
B1	0.079
B2	0.397
B3	0.064
B4	0.069
B5	0.47
B6	0.074

These binders were tested against horse IgG (horse) (assay: ELISA on coated antigen; 0.2 subtracted).

Binder	maximal absorbance value at 450 nm (background subtracted) [A450]
B1	1.39
B2	0.253
B3	0.056
B4	0.088
B5	0.127
B6	0.074

What follows are binders tested against dog albumin (dog) (UniProt P49822) (assay: ELISA on coated albumin).
Chain of UniProt P49822 (P49822 25-608 limits assumed): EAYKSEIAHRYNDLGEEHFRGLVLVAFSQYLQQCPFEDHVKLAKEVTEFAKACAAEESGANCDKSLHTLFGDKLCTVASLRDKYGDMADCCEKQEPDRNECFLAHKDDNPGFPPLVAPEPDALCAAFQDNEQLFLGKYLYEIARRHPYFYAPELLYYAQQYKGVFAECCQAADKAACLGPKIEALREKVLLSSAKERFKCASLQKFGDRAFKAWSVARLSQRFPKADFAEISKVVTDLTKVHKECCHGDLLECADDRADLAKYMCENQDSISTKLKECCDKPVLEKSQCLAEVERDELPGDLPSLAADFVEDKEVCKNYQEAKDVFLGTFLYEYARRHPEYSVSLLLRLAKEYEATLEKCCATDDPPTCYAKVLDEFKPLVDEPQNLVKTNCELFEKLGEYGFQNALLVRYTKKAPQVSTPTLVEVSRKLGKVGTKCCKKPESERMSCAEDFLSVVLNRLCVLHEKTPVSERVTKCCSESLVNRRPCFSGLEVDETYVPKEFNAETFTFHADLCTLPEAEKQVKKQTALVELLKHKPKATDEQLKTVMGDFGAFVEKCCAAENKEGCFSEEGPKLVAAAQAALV

Binder	maximal absorbance value at 450 nm [A450]
B7	0.069

These binders were tested against Equine IgG (Fc) (horse) (assay: BLI (Octet Red96), SDA on NTA sensor, IgG Fc as analyte).

Binder	Kd [nM]	koff [s⁻¹]	kon [M⁻¹ s⁻¹]
B1	0.43	0.000491	1.14e+06
B4	3.45	0.000353	102000

These binders were tested against Canine IgG (Fc) (dog) in the same assay as above.

Binder	Kd [nM]	koff [s⁻¹]	kon [M⁻¹ s⁻¹]
B3	0.215	0.000521	2.43e+06
B4	2.22	0.000344	155000

These binders were tested against sheep gamma globulin (sheep) (assay: ELISA on coated antigen; 0.1 subtracted).

Binder	maximal absorbance value at 450 nm (background subtracted) [A450]
B1	0.18
B2	0.162
B3	0.101
B4	0.144
B5	0.131
B6	0.114

What follows are binders tested against swine IgG (swine) (assay: ELISA on coated antigen).

Binder	maximal absorbance value at 450 nm (background subtracted) [A450]
B1	0.105
B2	0.114
B3	0.089
B4	0.132
B5	0.1
B6	0.103

What follows are binders tested against dog Fab fragment (dog) (assay: ELISA on coated antigen).

Binder	maximal absorbance value at 450 nm (background subtracted) [A450]	SDA Effective Concentration resulting in A450 nm = 0.2 [ng/mL]
B1	0.083	–
B2	1.22	26
B3	0.065	–
B4	0.089	–
B5	1.17	29
B6	0.21	818

The binders below were run against chicken gamma globulin (chicken) (assay: ELISA on coated antigen).

Binder	SDA Effective Concentration resulting in A450 nm = 0.4 [ng/mL]
B2	65
B5	45

Each binder was assayed against cat gamma globulin (cat) (assay: ELISA on coated antigen).

Binder	maximal absorbance value at 450 nm (background subtracted) [A450]	SDA Effective Concentration resulting in A450 nm = 0.2 [ng/mL]
B1	0.088	–
B2	0.583	58
B3	0.071	–
B4	0.108	–
B5	0.233	683
B6	0.116	–

What follows are binders tested against bovine IgG (bovine) (assay: ELISA on coated antigen).

Binder	maximal absorbance value at 450 nm (background subtracted) [A450]	SDA Effective Concentration resulting in A450 nm = 0.2 [ng/mL]
B1	0.083	–
B2	0.322	127
B3	0.077	–
B4	0.087	–
B5	0.101	–
B6	0.108	–

The binders below were run against dog Fc fragment (dog) (assay: ELISA on coated antigen).

Binder	maximal absorbance value at 450 nm (background subtracted) [A450]	SDA Effective Concentration resulting in A450 nm = 0.2 [ng/mL]
B1	0.146	–
B2	0.073	–
B3	1.4	78
B4	1.45	28
B5	0.071	–
B6	0.073	–

Each binder was assayed against horse IgG Fc fragment (horse) (assay: ELISA on coated antigen).

Binder	SDA Effective Concentration resulting in A450 nm = 0.2 [ng/mL]	maximal absorbance value at 450 nm (background subtracted) [A450]
B1	35	1.44
B2	–	0.068
B3	–	0.063
B4	109	1.18
B5	–	0.064
B6	–	0.066

These binders were tested against mouse gamma globulin (mouse) (assay: ELISA on coated antigen).

Binder	maximal absorbance value at 450 nm (background subtracted) [A450]
B1	0.093
B2	0.136
B3	0.068
B4	0.091
B5	0.075
B6	0.073

The binders below were run against horse F(ab')2 fragment (horse) (assay: ELISA on coated antigen).

Binder	maximal absorbance value at 450 nm (background subtracted) [A450]	SDA Effective Concentration resulting in A450 nm = 0.2 [ng/mL]
B1	0.132	–
B2	0.299	215
B3	0.078	–
B4	0.089	–
B5	0.149	–
B6	0.1	–

What follows are binders tested against horse IgG (horse) (assay: ELISA on coated antigen).

Binder	SDA Effective Concentration resulting in A450 nm = 0.4 [ng/mL]
B1	16
B2	212

The binders below were run against horse Fab fragment (horse) (assay: ELISA on coated antigen).

Binder	maximal absorbance value at 450 nm (background subtracted) [A450]	SDA Effective Concentration resulting in A450 nm = 0.2 [ng/mL]
B1	0.096	–
B2	0.303	305
B3	0.074	–
B4	0.194	–
B5	0.144	–
B6	0.085	–

These binders were tested against guinea pig IgG (guinea pig) (assay: ELISA on coated antigen).

Binder	maximal absorbance value at 450 nm (background subtracted) [A450]	SDA Effective Concentration resulting in A450 nm = 0.2 [ng/mL]
B1	0.114	–
B2	0.318	126
B3	0.076	–
B4	0.094	–
B5	0.146	–
B6	0.137	–

What follows are binders tested against human gamma globulin (human) (assay: ELISA on coated antigen).

Binder	maximal absorbance value at 450 nm (background subtracted) [A450]	SDA Effective Concentration resulting in A450 nm = 0.2 [ng/mL]
B1	0.193	–
B2	0.249	223
B3	0.121	–
B4	0.139	–
B5	0.142	–
B6	0.164	–

What follows are binders tested against dog IgG (dog) (assay: ELISA on coated antigen).

Binder	maximal absorbance value at 450 nm (background subtracted) [A450]	SDA Effective Concentration resulting in A450 nm = 0.2 [ng/mL]
B1	0.08	–
B2	0.876	29
B3	0.618	252
B4	0.847	50
B5	0.743	37
B6	0.242	441
